Test results published in the RNAGym collection of RNA variant scans (doi:10.7554/elife.90254).
Read counts are not given, so values of variants with three or more changes are uncertain.

B1: LINE1-mini (parent)
chain: GGCAGAGCUCAACACAGCGUGGCAAAGUGGCUGUGGCUAGACUGCC

Variants of: B1
Test: self-cleavage, relative activity (ratio to wild type); higher = more cleavage; in vitro, sequencing; the parent is a self-cleaving ribozyme

| Variant | self-cleavage |
| --- | --- |
| GGCAGAGCUCAACACAGCGUGGCAAAGUGGCUGUGGCAAUACUGCG [U38A G40U C46G] | 0.22 |
| GGCAGAGCUCAACACAGCGUGGCAAAGUGGCUGUGGUUAGACUAUC [C37U G44A C45U] | 0.14 |
| GGCAGAGCUCAACACAGCGUGUCACAGUGGCUGUGGCUAGACAGCC [G22U A25C U43A] | 0.15 |
| GGCAGCGCUUAACACAGCGUGGCAAAAUGGCUGUGGCUUGACUGCC [A6C C10U G27A A39U] | 0.28 |
| GGCAGAGCUCCACAGAGAGUGUCAAAGUGGCUGUGGCUAGACUGCC [A11C C15G C18A G22U] | 0.02 |
| AGCAGAGCUCAACAUGGCGUGGCAAAGUGGCUGUGGCUAGACUGCC [G1A C15U A16G] | 0.65 |
| GGCAGAGCUCAACACAGCGUGGCAAAGUGGUUUUGGCUAGACUUUC [C31U G33U G44U C45U] | 0.17 |
| GACAUAGCUUAACACAGCGUGGCAAAGUGGCUGUGGCUAGACUGCC [G2A G5U C10U] | 0.07 |
| GACAGAGCUCAACGCAGCGUAGCAAAGUGGCUGUGGCUAGACUGCC [G2A A14G G21A] | 0.15 |
| GGCAGAGAUCAACACAGCUUGGCAAUGUGCCAGUGGCUAGACUGCC [C8A G19U A26U G30C U32A] | 0.17 |
| GGCCGAGCUCAACACAGCGUGGCAAAGUAGCUGUUGCUAGACUGCC [A4C G29A G35U] | 0.18 |
| GGCAGAGCUAAACACAGCGUGGAACAGUGGCUGUGGCUAGACUGCC [C10A C23A A25C] | 0.01 |
| GGCAGAGCUCAACACGGAGUGGCAAAGUGGCUGUGGCUCGACUGCC [A16G C18A A39C] | 0.02 |
| GACAGAACUCCACACAGCGUGGCAAAGUGGCUGCGGCUAGACUGCC [G2A G7A A11C U34C] | 0.04 |
| GGCAGAGCUCAAGUCAGCGUGGCAAAGUGGAUGUGGCUAAAGUGCC [C13G A14U C31A G40A C42G] | 0.02 |
| GGCAGAGCUCAACACAGGGUGGCAAAGUGGCUGUUGAUAGACGGCC [C18G G35U C37A U43G] | 0.07 |
| GACAGAGCACAACACAGGGUGGCAAAGUGGCUGUGGCUACACUGCC [G2A U9A C18G G40C] | 0.03 |
| GGCAGAGCUAAACACAACGUGGCAAAGUGGCUGUGUCUAGACUGCC [C10A G17A G36U] | 0 |
| GGCAGAGCUCAACACAGCGUGGUUAAGUGUAUGUGGCUAGGCUGCC [C23U A24U G30U C31A A41G] | 0.04 |

| Variant | self-cleavage |
| --- | --- |
| GGCAGAGCUCAACACAGCGUCGAAGAGUGGCUGUGGCUAGAUUGCC [G21C C23A A25G C42U] | 0.12 |
| GGCAGACCUCAACUCAGCGUGGCAAAGUCGCUUUGGCUAGACUGCC [G7C A14U G29C G33U] | 0.03 |
| GGCAGAGAUGAACACAGCGGUGCAACGUGGCUCUAGCUAGACUGCC [C8A C10G U20G G21U A26C G33C G35A] | 0.03 |
| UGCAGACCUCAACGCAGCGUGGCAAAGUAGCUGUAGCUAGACUGCC [G1U G7C A14G G29A G35A] | 0.03 |
| GGCAGCGCUCUAUACUGCGUGACAAAGUGGCUGUGGCCAGAAUGCC [A6C A11U C13U A16U G22A U38C C42A] | 0.02 |
| GGCGGAGCCCUACACAGCGUGGGAAAGUGGCUGUGUCUAGACUGCA [A4G U9C A11U C23G G36U C46A] | 0.01 |
| CGCAGAGCUCAACACAGCGUGGCAAAGUGGCUUUGGCUAGAUUGCC [G1C G33U C42U] | 0.02 |
| GGCAGAGCUCGACACAGCGUAGCAGAGUGGCUGUGGCUAGACUGCC [A11G G21A A25G] | 0 |
| GGCAGAGCUCAACACAGUGUGAUAAAGUGGCUGUGGCUAGACUGCC [C18U G22A C23U] | 0.93 |
| GUUAGAGCUCAACACACCGAGGCAAAGUGGCUGUGGCUAGACUGCC [G2U C3U G17C U20A] | 0.13 |
| GGCAGAGCACAACACAGGGUGGCAAAGUGACUGUGGCUAUACUGCC [U9A C18G G30A G40U] | 0.06 |
| GGCAGAGCUCAACACAGCGUGGCUAAGAGGAUGUGGCUGCACUGCC [A24U U28A C31A A39G G40C] | 0.04 |
| GGCAGAGCUCAACAAACCGUGGCAAAGUGGCGGUGGCUAGACUGCC [C15A G17C U32G] | 0.02 |
| GGCAGAGCUCCACACAGCUAUGCAAAGUGGCUGUGGCUAGACUGCC [A11C G19U U20A G21U] | 0.04 |
| GGCAGAGCUCAAUACAGCGUGUCAAAGUGGCUGAGGCUAGACUGCC [C13U G22U U34A] | 0.02 |
| GGCAGAUCUCAACACAGCGUGGCAAUGAGACUGUGGCUAGACUGCC [G7U A26U U28A G30A] | 0.13 |
| GGCAGAGCUCAACACAGCGUCGCAGAGGGGCUGUGUCUAGACUGCC [G21C A25G U28G G36U] | 0.01 |
| GGCAGAUCUCUACACAGCGUGCUAAAGUGGCUGUGGCUAGACUGCC [G7U A11U G22C C23U] | 0.03 |
| GGCAGAGCUCAACACAGCCAGGCAAAGUGGCUGUAGCUAGAAUGCC [G19C U20A G35A C42A] | 0.01 |

| Variant | self-cleavage |
| --- | --- |
| GGCAGAGCUCAAUGCAGCGUGGCAAAGUGGCUGUGGGUAGACUGCC [C13U A14G C37G] | 0 |
| GGCAGUGGUCAACACAGCGUGGGACAGUGGCAGUGGCUAGACUGCC [A6U C8G C23G A25C U32A] | 0.01 |
| GGCAGUGCUCAACACAGAGUGGCAAAUUGGCUGUGGCUCGACUGCC [A6U C18A G27U A39C] | 0.11 |
| GGCAAAGCUCAACACAGCGUGGCAAAUAGGCUCUGGCUAGACUGCC [G5A G27U U28A G33C] | 0.04 |
| GGCAGAGUUCGAUACGGCGUGGCAAAAUGGCUGUGGCUAGACUGCC [C8U A11G C13U A16G G27A] | 0.03 |
| GUCAGAGCUCAACACAGCCUGGAAAAGUGGCUGUGGCUAGACUGCC [G2U G19C C23A] | 0.22 |
| GGCCGAGCUCAACACAGCGUGGCAAAGUGGCUGUGUAUAGACUGCC [A4C G36U C37A] | 0.07 |
| GGCAGAGCUCAACACAGCGUGGCAAAGUGGGUGUCGCUAGACUGUC [C31G G35C C45U] | 0.03 |
| GGCAGAGCGCAACAUAGCGUGGCAAAGAGGCUGUGGCUAGACUGCC [U9G C15U U28A] | 0.04 |
| GGCAGAGCUCAACACAUCGUGGCAAGGUGGCUGUUGCUAGACUGCC [G17U A26G G35U] | 0.09 |
| GGCAGAGCUCAACACAGCGUGGCCAGGUGGCUGUGGUUAGACUGCC [A24C A26G C37U] | 0.02 |
| GGCAGAGCUCAACACAGCGUGGCAAAUUGGCUGUGGCUACAAUGCC [G27U G40C C42A] | 0.05 |
| GGCAGAGCGCCACACAGCGUGGCUAAGUGGCUGUGGAUAGACUGCC [U9G A11C A24U C37A] | 0.01 |
| UGCAGACCUGAACACAGCGUGGCAAAGUGGCUGUGGCUAGCCUGCC [G1U G7C C10G A41C] | 0.02 |
| AGCAGAGCUGAACACGGCGUGGCACAAUGGCUGUGGCUAGACUGCC [G1A C10G A16G A25C G27A] | 0.47 |
| GGCAGAGCUCAAAACUGCGUGGCAAAGUGGCUGUGGCUAGACUGCU [C13A A16U C46U] | 0.09 |
| GGCUGAGCUCAACACAGCGUACGAAAGUGGCUGGGGCUAGACUGGC [A4U G21A G22C C23G U34G C45G] | 0.02 |
| GGCAGUGCUCACCACAGCGUGGCGAAGUGGCUUUGGCUAGACUGCC [A6U A12C A24G G33U] | 0.04 |
